These are yes or no findings as the source states them, for the method shown. In cells and extracts the contact can be indirect. Some results given as binding are weak or reduced against the parent protein; the word gives no strength. For part of these data: Where a sequence is shown, tags or fusion partners need not be part of it.

Protein sequences, listed by entry. Tags and fused reporters are not part of them.
UniProt P78527: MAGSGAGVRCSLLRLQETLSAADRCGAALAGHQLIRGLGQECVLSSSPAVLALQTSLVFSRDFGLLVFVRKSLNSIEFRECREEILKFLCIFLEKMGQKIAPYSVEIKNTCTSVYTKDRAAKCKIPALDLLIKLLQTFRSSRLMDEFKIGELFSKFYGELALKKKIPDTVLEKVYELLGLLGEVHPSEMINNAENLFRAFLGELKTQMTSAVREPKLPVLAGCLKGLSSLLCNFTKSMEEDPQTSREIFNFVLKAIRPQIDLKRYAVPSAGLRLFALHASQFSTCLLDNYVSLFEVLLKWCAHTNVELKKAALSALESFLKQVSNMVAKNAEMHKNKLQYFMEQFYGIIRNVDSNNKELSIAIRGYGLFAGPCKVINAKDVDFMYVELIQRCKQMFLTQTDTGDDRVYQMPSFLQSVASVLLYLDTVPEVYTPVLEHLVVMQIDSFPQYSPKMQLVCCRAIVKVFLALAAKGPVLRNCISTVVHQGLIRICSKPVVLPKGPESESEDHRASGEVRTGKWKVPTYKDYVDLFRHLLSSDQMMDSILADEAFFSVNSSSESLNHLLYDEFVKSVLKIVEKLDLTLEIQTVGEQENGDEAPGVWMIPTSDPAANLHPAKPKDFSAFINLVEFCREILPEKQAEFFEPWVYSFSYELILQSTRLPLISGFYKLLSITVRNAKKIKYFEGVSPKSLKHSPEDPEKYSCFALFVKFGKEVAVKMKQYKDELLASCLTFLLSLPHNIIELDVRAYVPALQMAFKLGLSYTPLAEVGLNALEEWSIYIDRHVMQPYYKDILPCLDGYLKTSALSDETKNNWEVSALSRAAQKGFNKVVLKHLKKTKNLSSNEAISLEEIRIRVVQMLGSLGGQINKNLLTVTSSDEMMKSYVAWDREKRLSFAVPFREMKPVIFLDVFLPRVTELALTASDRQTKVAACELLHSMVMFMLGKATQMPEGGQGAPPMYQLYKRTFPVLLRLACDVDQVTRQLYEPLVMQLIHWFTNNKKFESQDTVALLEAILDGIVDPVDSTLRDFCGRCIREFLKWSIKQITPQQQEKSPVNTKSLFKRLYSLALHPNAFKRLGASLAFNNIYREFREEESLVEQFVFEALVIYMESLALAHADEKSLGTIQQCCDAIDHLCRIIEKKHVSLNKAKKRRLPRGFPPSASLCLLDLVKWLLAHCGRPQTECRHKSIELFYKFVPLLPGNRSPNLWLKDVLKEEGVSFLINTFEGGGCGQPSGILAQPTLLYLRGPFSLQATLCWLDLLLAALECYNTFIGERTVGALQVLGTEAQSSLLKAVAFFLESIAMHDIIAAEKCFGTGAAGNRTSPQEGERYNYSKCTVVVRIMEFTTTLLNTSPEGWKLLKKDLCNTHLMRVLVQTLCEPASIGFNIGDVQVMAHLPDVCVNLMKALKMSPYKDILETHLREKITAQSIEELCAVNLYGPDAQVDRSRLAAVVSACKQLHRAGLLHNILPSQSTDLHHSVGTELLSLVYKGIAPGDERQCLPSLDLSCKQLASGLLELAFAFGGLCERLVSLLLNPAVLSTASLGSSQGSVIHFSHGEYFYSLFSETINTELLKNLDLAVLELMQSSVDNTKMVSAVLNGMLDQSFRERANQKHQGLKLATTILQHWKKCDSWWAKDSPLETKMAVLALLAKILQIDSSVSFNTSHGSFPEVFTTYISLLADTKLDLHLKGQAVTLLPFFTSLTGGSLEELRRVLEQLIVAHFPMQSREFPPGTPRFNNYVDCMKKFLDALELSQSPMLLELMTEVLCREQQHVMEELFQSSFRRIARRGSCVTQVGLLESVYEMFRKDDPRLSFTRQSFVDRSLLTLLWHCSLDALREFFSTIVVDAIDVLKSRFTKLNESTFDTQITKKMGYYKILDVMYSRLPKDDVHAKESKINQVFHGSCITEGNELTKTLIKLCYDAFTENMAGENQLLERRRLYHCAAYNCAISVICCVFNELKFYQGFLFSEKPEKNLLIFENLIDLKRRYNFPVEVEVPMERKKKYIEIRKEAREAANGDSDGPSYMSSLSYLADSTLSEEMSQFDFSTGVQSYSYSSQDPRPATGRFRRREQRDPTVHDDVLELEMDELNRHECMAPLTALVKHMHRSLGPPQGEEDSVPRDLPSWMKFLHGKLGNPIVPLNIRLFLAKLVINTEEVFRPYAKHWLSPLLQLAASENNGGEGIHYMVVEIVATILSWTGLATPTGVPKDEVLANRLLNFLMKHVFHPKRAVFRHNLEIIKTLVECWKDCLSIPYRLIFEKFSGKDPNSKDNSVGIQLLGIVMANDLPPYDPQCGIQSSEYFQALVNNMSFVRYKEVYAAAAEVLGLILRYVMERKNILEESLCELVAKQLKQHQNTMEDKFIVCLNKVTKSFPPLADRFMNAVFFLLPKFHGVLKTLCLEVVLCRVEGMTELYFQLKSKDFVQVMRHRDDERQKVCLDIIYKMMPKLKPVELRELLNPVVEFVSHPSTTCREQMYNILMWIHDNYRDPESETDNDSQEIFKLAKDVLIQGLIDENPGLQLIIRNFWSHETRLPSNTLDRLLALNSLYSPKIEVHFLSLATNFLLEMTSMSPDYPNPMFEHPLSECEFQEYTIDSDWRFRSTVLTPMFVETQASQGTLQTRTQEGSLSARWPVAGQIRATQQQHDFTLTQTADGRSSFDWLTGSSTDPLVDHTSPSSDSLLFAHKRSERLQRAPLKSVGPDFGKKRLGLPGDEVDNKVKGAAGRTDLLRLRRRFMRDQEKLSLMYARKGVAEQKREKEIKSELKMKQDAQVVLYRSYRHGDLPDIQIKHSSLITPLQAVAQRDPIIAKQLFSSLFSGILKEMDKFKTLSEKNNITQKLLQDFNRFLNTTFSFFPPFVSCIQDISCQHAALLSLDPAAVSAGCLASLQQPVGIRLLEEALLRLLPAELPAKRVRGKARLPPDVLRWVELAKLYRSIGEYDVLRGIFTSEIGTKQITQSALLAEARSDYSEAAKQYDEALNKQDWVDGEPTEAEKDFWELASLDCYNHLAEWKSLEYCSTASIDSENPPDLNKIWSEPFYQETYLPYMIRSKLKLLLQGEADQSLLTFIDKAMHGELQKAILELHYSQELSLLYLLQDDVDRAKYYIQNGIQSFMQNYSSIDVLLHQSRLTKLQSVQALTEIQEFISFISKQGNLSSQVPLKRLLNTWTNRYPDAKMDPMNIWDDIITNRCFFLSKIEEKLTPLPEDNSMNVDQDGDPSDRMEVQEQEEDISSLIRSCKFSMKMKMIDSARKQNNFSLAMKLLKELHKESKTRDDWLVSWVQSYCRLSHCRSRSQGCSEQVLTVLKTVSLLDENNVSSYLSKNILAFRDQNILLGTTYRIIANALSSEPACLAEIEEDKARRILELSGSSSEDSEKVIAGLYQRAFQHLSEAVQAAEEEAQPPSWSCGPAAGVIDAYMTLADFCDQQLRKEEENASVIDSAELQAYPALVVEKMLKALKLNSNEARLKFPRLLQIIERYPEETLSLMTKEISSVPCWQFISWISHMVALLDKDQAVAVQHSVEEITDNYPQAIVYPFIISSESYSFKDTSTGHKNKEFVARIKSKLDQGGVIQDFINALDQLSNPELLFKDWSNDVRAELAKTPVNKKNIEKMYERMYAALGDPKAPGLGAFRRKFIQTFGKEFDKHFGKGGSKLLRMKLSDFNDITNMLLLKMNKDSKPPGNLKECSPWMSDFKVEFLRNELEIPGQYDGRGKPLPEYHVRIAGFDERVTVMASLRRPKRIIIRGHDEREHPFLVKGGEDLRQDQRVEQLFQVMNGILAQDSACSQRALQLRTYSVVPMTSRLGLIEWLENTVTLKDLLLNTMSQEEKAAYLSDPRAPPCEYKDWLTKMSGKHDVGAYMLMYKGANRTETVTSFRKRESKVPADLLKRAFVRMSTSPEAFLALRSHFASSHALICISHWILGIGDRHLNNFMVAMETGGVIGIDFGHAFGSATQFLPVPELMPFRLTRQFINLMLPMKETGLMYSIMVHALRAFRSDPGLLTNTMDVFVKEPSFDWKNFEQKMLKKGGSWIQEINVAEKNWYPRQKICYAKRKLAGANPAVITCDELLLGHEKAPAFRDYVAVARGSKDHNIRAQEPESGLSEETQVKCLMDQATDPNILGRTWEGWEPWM

Consider 2 substances from paper PMC11230511.

Experiment [1] deals with T1, endogenous FLCN (folliculin) (human (endogenous; only human cell lines, HEK293 and HK2, are used in the paper)) (UniProt Q8NFG4).
T1 sequence: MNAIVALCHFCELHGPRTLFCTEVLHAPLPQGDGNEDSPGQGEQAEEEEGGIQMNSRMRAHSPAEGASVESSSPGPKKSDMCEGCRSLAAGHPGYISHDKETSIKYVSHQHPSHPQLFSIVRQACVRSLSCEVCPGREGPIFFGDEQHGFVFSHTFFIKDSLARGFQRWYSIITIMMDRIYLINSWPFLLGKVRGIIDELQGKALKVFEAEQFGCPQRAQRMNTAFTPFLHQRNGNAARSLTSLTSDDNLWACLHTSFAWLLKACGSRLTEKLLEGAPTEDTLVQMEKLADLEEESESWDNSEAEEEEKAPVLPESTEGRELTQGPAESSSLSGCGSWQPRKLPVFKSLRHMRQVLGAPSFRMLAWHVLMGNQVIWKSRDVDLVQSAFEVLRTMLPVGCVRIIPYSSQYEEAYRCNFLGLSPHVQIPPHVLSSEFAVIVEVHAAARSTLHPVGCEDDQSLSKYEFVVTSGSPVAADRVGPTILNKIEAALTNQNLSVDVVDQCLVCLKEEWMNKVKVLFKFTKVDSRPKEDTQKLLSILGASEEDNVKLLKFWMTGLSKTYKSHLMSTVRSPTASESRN
Nature of the experiment: co-IP; endogenous FLCN immunoprecipitated with an antibody raised against N-terminal FLCN; endogenous DNA-PKcs detected by western blot. On the technique in general: A western blot detects proteins with antibodies after separation by electrophoresis.

Experiment [2] deals with T2, HA-FLCN Y463X (human) (UniProt Q8NFG4).
T2 sequence: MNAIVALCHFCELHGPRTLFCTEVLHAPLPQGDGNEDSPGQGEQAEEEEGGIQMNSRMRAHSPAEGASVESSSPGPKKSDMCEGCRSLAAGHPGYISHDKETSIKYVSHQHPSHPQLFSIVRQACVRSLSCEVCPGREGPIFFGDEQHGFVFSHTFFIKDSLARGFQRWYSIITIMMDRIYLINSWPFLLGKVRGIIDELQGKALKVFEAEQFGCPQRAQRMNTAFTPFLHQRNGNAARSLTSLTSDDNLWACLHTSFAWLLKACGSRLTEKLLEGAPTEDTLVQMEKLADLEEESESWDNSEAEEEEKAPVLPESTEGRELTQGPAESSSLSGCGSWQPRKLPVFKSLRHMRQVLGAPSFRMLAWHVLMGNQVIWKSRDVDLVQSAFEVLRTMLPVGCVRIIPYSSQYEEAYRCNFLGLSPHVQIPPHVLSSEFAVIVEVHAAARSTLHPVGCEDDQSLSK
The experiment can be described thus: co-IP; HA-FLCN constructs overexpressed in HEK293; pre-cleared lysates, anti-HA antibodies 2 h at 4°C, protein G-Sepharose; endogenous DNA-PKcs detected by western blot.

The target in experiment [3] is T3, HA-FLCN wild type (human) (UniProt Q8NFG4).
T3 sequence: T1 sequence
The experiment is described as above.

The target in experiment [4] is T4, GST-tagged FLCN (folliculin) (human) (UniProt Q8NFG4).
T4 sequence: T1 sequence
The experiment can be described thus: condition: only after irradiation (IR) of the cells at 5 or 10 Gy; pull-down; GST-FLCN overexpressed in HEK293 cells that were subjected to IR (5 or 10 Gy) and left 1 or 4 h before lysis; GST-FLCN purified, endogenous DNA-PKcs detected by western blot.

Experiment [5] addresses T4, GST-tagged FLCN (folliculin) (human). The experiment can be described thus: pull-down; GST-FLCN overexpressed in HEK293 as bait; lysate on glutathione-Sepharose 4B beads, 4°C, 3 h; washed 5 times in BHD lysis buffer with 300 mM NaCl for DNA-PKcs (250 mM for all other proteins); eluted with 10 mM glutathione; endogenous proteins detected by western blot.

As for “DNA-dependent protein kinase catalytic subunit (DNA-PKcs) (from UniProt P78527 1-4128) (enzyme)”, the binding result is reported as “binds” in experiment [1]; “binds” in experiment [2]; “binds” in experiment [3]; “no binding” in experiment [4]; “binds” in experiment [5].

In the case of “ATR (from UniProt Q13535 1-2644) (enzyme)”, the binding entry in experiment [5] is “no binding”.
